# Measurements: PMC4336329 (PLoS ONE, 2015)
# About 14,000 (4.5%) of roughly 310,000 compounds showed an effect of 50% or more. The effect is printed as a negative number. Some of the results follow.
# Target: human ether-à-go-go-related gene (hERG) potassium channel (human, UniProt Q12809)
# Experiment: primary screen, population patch clamp on CHO cells stably expressing hERG
# 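Note: peak tail current of the secondary pulse compared with the same well before compound.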
# Sequence of human ether-à-go-go-related gene (hERG) potassium channel (Q12809 whole entry, looked up): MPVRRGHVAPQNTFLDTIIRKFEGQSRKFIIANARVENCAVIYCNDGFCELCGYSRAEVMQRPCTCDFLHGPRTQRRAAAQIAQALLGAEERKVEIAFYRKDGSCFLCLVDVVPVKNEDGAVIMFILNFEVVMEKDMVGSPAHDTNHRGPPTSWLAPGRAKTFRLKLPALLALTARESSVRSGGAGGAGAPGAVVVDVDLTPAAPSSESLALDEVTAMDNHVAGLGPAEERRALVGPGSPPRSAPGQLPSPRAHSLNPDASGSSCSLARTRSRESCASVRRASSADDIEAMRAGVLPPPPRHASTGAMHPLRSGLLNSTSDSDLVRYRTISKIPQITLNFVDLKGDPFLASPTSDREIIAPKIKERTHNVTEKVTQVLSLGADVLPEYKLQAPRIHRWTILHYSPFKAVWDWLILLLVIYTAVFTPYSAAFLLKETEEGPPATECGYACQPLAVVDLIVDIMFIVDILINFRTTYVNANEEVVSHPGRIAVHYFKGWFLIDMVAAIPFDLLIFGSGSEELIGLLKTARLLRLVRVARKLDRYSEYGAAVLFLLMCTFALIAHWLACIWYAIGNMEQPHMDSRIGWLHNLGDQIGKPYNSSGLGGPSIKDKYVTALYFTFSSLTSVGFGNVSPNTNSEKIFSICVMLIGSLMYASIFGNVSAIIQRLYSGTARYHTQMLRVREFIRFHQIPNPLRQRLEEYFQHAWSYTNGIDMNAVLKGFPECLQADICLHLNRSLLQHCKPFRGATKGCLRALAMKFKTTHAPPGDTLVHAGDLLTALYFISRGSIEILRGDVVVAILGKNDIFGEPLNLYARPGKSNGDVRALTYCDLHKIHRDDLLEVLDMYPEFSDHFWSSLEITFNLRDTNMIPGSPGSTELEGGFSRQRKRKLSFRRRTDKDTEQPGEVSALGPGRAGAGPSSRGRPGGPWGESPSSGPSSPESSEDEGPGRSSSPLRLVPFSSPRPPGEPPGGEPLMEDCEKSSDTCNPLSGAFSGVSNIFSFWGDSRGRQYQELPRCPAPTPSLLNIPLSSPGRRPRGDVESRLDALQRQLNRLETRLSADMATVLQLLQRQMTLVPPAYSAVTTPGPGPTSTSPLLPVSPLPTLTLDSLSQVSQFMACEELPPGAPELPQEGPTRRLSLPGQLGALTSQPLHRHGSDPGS
row,Structure (SMILES),"hERG current change (%, negative = inhibition) at 10uM [%]"
1,Cc1ccc(C(=O)NCc2ccccc2)c(F)c1F,13.2
2,COc1cc(OC)cc(C(=O)N2CCN(c3ncccn3)CC2)c1,-19.3
3,Cc1cc(O)cc(C)c1NS(=O)(=O)c1ccc2ccccc2c1,-9.59
4,COc1ccc(C(=O)N[C@H](C(=O)N2CCN(c3ccccc3F)CC2)C(C)C)cc1,-3.37
5,O=C(Nc1cccc(F)c1)Nc1ccnn1C1CCN(C(=O)c2cscn2)CC1,11.6
6,CCOC(=O)C1(CC)NC(c2ccc(OC)c(OC)c2)C2C(=O)N(c3cccc(C(C)=O)c3)C(=O)C21 (stereo not drawn),16.5
7,CC1NC(=S)N(C2CCCCC2)C1=O (stereo not drawn),24.6
8,O=C(CSc1oc(-c2ccco2)nc1S(=O)(=O)c1ccccc1)NCC1CCCO1 (stereo not drawn),-2.1
9,COc1cc(OC)cc(N(C(=O)c2ccco2)C(C(=O)NC2CCCC2)c2ccc(N3CCOCC3)cc2)c1 (stereo not drawn),-11.9
10,CCCC(=O)Nc1cccn(Cc2ccccc2Br)c1=O,-6.57
11,COC(=O)c1cccc(NC(=O)c2ccc3c(c2)C(=O)N(Cc2cccnc2)C3=O)c1,-24.1
12,CNC(=O)C12CC3CC(CC(Cl)(C3)C1)C2,-10.9
13,CC(C)C[C@@H](CN(C)N=O)N(C[C@H](Cc1ccccc1)N(CCc1ccccc1)N=O)N=O.[Na+],-21.8
14,CCCCc1c(O)nc(SCC(=O)N2CCOCC2)n(-c2ccccc2OC)c1=O,7.27
15,CC(C)(C)C1=CC(=Nc2ccccc2N)C=C(C(C)(C)C)C1=O,14.7
16,CCC(Sc1nnc(C)s1)C(=O)Nc1nccs1 (stereo not drawn),-5.54
17,Cc1nc2ccccn2c1C(=O)CSc1ccccc1,-19
18,COc1ccccc1C(C#N)N1N=C(C)CC1c1ccccc1 (stereo not drawn),1.69
19,CCOC(=O)C1CCCN(C(=O)c2sc3nc(C)nc(N(CC)CC)c3c2C)C1 (stereo not drawn),-25
20,COc1ccccc1CNS(=O)(=O)c1ccc(-n2cccn2)cc1,6.96
21,CCn1cc(CN2CCc3c([nH]c4ccccc34)C2c2ccc(F)c(OC)c2)c(C)n1 (stereo not drawn),6.94
22,COc1ccc(CC(=O)Nc2ccc(OC)c(NC(=O)c3ccco3)c2)cc1,-28.1
23,CN1C(=O)NC(c2ccccc2)C2=C1CN(c1ccc3ccccc3c1)C2=O (stereo not drawn),8.31

row,Structure (SMILES),"hERG current change (%, negative = inhibition) at 10uM [%]"
1,CC(NC(=O)C1CCCN(S(=O)(=O)c2cccs2)C1)c1ccccc1 (stereo not drawn),6.73
2,S=c1nc(-c2ccccc2)[nH]n1-c1ccccc1,8.01
3,C(=N\Nc1ncnc2sc3c(c12)CCC3)/c1ccncc1,-22.5
4,CCOC(=O)c1c(C)c(C(=O)NCC2CCCO2)c(C)n1C (stereo not drawn),6.6
5,Cc1cc(NC(=O)CCC(=O)N(Cc2ccco2)C(C(=O)NC2CCCC2)c2ccccc2)no1 (stereo not drawn),-18.3
6,CCOC(=O)c1ccc(NCCc2ccc(OC)c(OC)c2)c(N)c1,-31.4
7,O=C(/C=C/c1ccc([N+](=O)[O-])cc1)NNC(=O)C1CC1,1.2
8,O=C(C[n+]1cc(Br)cc2ccccc21)c1ccccc1.[Br-],-21.7
9,CN(C)c1ccc(C(O)P(=O)(OC2CCCCC2)OC2CCCCC2)cc1 (stereo not drawn),0.168
10,Cc1nn(-c2ccccc2)c(C)c1NS(=O)(=O)c1ccccc1,-2.28
11,Cc1ccc(NC(=O)CNC(=O)c2ccco2)cc1,19.6
12,O=C(NCC1CCCCC1)c1ccc(F)c(S(=O)(=O)N2CCOCC2)c1,-10.2
13,COC(=O)C1C(=O)C(C(=O)/C=C/c2ccccc2)C(=O)CC1(C)C (stereo not drawn),23.2
14,O=C(O)c1ccc2c(c1)CCCN2,13.4
15,COc1ccc(CN(CC(=O)NCc2ccc(F)cc2)C(=O)c2ccco2)cc1,-61.7
16,CCC(C)(CCNC(=O)Cc1ccccc1)c1ccccc1OC (stereo not drawn),-21
17,O=C(O)C(=O)O.O=C(c1ccco1)N1CCN(CC2CC3C=CC2C3)CC1 (stereo not drawn),-10.8
18,CC(=O)Nc1ccc(S(=O)(=O)NCCC(=O)NCCc2ccc(F)cc2)cc1,7.64
19,COc1cc(C(=O)Nc2nc(N)n(-c3ccccc3)n2)cc(OC)c1OC,-5.34
20,CCN(CC)c1nc(C)c(C(=S)Nc2cc([N+](=O)[O-])ccc2Cl)s1,25.2
21,O=[N+]([O-])c1cccc(/C=N/N2CCN(Cc3ccccc3)CC2)c1,-0.159
22,O=C(O)CN1CCN(Cc2ccc(Cl)cc2)C1=O,-12.9
